In PubChem BioAssay AID686971 (National Center for Advancing Translational Sciences (NCATS), 2013):
Out of some 360,000 compounds screened, about 7,500 (2.1%) were called active. Inconclusive results, whose numbers are uncertain, are shown with a selection of clear calls. Calls come from the whole dose curve; as a rule, active = well fitted cell-killing curve with a large enough effect; inconclusive = small, poorly fitted or top-dose-only effect, or effect the other way, or another doubt; inactive = no such curve, though single readings can be large or run the other way. Potencies of inconclusive entries are left out as doubtful fits.
Potency is the fitted concentration of half-maximal effect; tags give direction and shape of the fitted curve.

Assay: qHTS for induction of synthetic lethality in tumor cells producing 2HG: qHTS for the HT-1080-IDH1KD cell line;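 for activity, negative = toxicity: 0% = DMSO wells and -100% = cell-free medium wells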
Details: HT-1080 IDH1 knockdown viability, ATP luminescence, 48 h; activity, negative = toxicity: at 46.1 µM (top of the series) unless noted
Outline: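 % activity derives from luminescence (CellTiter-Glo), normalised to DMSO and no-cell wells. HT-1080-IDH1KD cells, 750/well, had 48 h compound exposure at 37 °C.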
With `COc1ccc(NC(=O)CNC(=O)Cc2cccc3ccccc23)c(OC)c1` the Potency was inconclusive [rising, single point].
With `N=C(N1CCCc2ccccc21)N1CCCc2ccccc21` the Potency was inconclusive [cytotoxic, partial curve].
For `CCC(C)(C)C1CCC(=NNC(=S)Nc2cccnc2)CC1` (stereo unspecified), the Potency was “inactive”.
In the case of `C=CCN(c1ccccc1)S(=O)(=O)c1cccc(C(=O)Nc2cc(C)ccn2)c1`, the Potency is reported as inconclusive [cytotoxic, partial curve].
With `Cc1ccccc1Nc1nc(NCc2ccco2)c2ccccc2n1` the Potency was active: 14.6 µM.
For `Cc1cc(SCc2cc(=O)[nH]c3ccccc23)nc2ccccc12`, the Potency was inconclusive [cytotoxic, single point].
In the case of `CC(C)C(=O)N1CCN(c2ccccc2NC(=O)COc2ccc(C3CCCCC3)cc2)CC1`, the Potency is reported as inconclusive [cytotoxic, single point].
In the case of `COc1ccc(NC(=O)C2Cc3c(-c4cccc(C(C)=O)c4)ccnc3O2)cc1OC` (stereo unspecified), the Potency is reported as inconclusive [cytotoxic, full curve].
In the case of `CCOc1ccc2nc3cc(NCc4ccc(OC)cc4)ccc3c(N)c2c1`, the Potency is reported as inconclusive [cytotoxic, single point].
For `Nc1nc2nc(-c3ccccc3)cc(C(F)(F)F)c2s1`, the Potency was inconclusive [cytotoxic, single point].
For `N=c1n(CC(=O)c2cccc([N+](=O)[O-])c2)c2ccccc2n1Cc1ccccc1`, the activity, negative = toxicity was inconclusive: -31.7% [cytotoxic].
With `CC(=O)N(C(C)=O)n1c(C)nc2sc3c(c2c1=O)CCCC3` the Potency was inconclusive [cytotoxic, single point].
In the case of `O=C1c2ccccc2/C(=C\c2ccc3[nH]ccc3c2)N1c1ccccc1`, the Potency is reported as “inactive”.
For `Oc1cc2c(cc1C(c1ccc(Cl)c(Cl)c1)N1CCCC1)OCO2` (stereo unspecified), the Potency was inconclusive [cytotoxic, single point].
In the case of `Cc1ccccc1-n1cnc2c(sc3nc(N4CCOCC4)c4c(c32)CCCC4)c1=O`, the Potency is reported as inconclusive [cytotoxic, single point].
With `OC(CNCC1CCCO1)Cn1c2ccc(Cl)cc2c2cc(Cl)ccc21` (stereo unspecified) the Potency was inconclusive [cytotoxic, single point].
With `CCC(C)Nc1ccc(NC(C)CC)cc1` (stereo unspecified) the Potency was active: 9.2 µM.
For `Cc1ccc(Oc2ncnc(N)c2[N+](=O)[O-])cc1C`, the Potency was “inactive”.
With `c1ccc(CN2CCN(c3nc(NCc4ccco4)c4ccccc4n3)CC2)cc1` the Potency was inconclusive [cytotoxic, single point].
With `O=C(Cn1c(/C=C/c2ccccc2)nc2ccccc21)Nc1ccc(F)cc1` the Potency was inconclusive [cytotoxic, partial curve, poor fit].
For `Cc1ccc(CSCC(=O)N(C)CC(=O)Nc2ccc(Cl)c(Cl)c2)cc1`, the Potency was “inactive”.
With `CCC[C@H]1CN(Cc2cccnc2)C(=O)[C@@H]1CC(=O)Nc1ccc(Br)cc1` the Potency was “inactive”.
In the case of `COc1cc2c(cc1OC)C1(Nc3c-2c(Cc2ccccc2)nn3-c2ccccc2)C(=O)Nc2ccccc21` (stereo unspecified), the Potency is reported as inconclusive [cytotoxic, single point].
In the case of `O=C(Nc1nc(-c2ccccc2)cs1)c1ccc(N2CCOCC2)c([N+](=O)[O-])c1`, the Potency is reported as inconclusive [cytotoxic, partial curve, poor fit].
For `COc1cccc(/C=N/NC(=O)CNC(=O)c2cccnc2)c1O`, the Potency was active: 11.6 µM.
In the case of `Cc1ccc(S(=O)(=O)Nc2nc3cc(C)c(C)cc3[nH]2)cc1`, the Potency is reported as inconclusive [cytotoxic, single point].
In the case of `CN(C)C(=O)c1ccc(Nc2nc(-c3cccs3)nc3ccccc23)cc1`, the Potency is reported as inconclusive [cytotoxic, single point].
In the case of `CCOc1cc(S(=O)(=O)Nc2ccccc2CC)ccc1Cl`, the Potency is reported as inconclusive [cytotoxic, single point].
In the case of `COC(=O)C(NC(=O)C(C)NC(=O)OCc1ccccc1)C(C)C` (stereo unspecified), the Potency is reported as “inactive”.
For `O=C(COC(=O)C1CC2CCCC(C1)C2=O)NC1CCCCC1` (stereo unspecified), the Potency was “inactive”.
In the case of `COc1ccc(NS(=O)(=O)c2cc(N=Nc3c(O)[nH]c(=O)[nH]c3=O)ccc2OC)cc1Br`, the Potency is reported as “inactive”.
For `COc1ccc(S(=O)(=O)Cc2ccc(C(=O)N3CCN(c4cccc(C)c4C)CC3)o2)cc1`, the Potency was inconclusive [cytotoxic, single point].
With `Cc1cccc(N2CCN(C(=O)c3cccc(N4C(=O)C5C6C=CC(C6)C5C4=O)c3)CC2C)c1` (stereo unspecified) the Potency was inconclusive [cytotoxic, single point].
In the case of `COc1ccccc1NC(=O)CSc1ccc(-c2ccccn2)nn1`, the Potency is reported as inconclusive [cytotoxic, single point].
For `CC(C)c1ccc(S(=O)(=O)N2CCN(CC(O)CN3CCOCC3)CC2)cc1` (stereo unspecified), the Potency was “inactive”.
For `CCC1CCCCN1Cc1c(O)ccc2c(=O)c(-c3ccccc3)coc12` (stereo unspecified), the Potency was inconclusive [cytotoxic, single point].
For `Cc1onc(-c2c(Cl)cccc2Cl)c1C(=O)c1ccccc1`, the Potency was “inactive”.
In the case of `CC(=O)Nc1ccc(-c2ccnc3c2CC(C)(C(=O)Nc2ccc(Cl)c(C(F)(F)F)c2)O3)cc1` (stereo unspecified), the Potency is reported as active: 16.4 µM.
With `O=C1NC(=O)c2cc(Nc3ccccc3)c(Nc3ccccc3)cc21` the Potency was “inactive”.
With `Cn1nc(C(F)(F)F)c(-c2ccccc2)c1NC(=O)CSCC(=O)O` the activity, negative = toxicity was inconclusive: 6.67%.
For `COc1ccc2nc(NC(=O)C3CCN(S(=O)(=O)c4cccc5nsnc45)CC3)sc2c1`, the Potency was inconclusive [cytotoxic, partial curve].
In the case of `CCOC(=O)c1c(CN2CCN(C)CC2)n(C)c2cc(Br)c(OC)cc12`, the Potency is reported as inconclusive [cytotoxic, single point].
In the case of `O=C1c2cc(Cl)ccc2-c2c(O)cc(Cl)cc21`, the Potency is reported as active: 23.1 µM.
In the case of `COc1ccc(NC(=S)NCCSc2ccc(C)cc2)c(OC)c1`, the Potency is reported as inconclusive [cytotoxic, single point].
For `COc1cccc(C=C(C(C)=O)C(=O)c2ccccc2)c1`, the Potency was active: 16.4 µM.
For `Cc1cccc(-n2ncc(Cl)c(Cl)c2=O)c1`, the Potency was active: 20.6 µM.
For `CCc1nc2sc3c(c2c(=O)n1NC(=O)CCl)CCCC3`, the Potency was inconclusive [cytotoxic, single point].
In the case of `CCN(CCO)c1nc(SC)nc2c1sc1nc(-c3ccco3)c3c(c12)CCC3`, the Potency is reported as “inactive”.
For `CCn1cc(C(=O)Nc2ccc3c(c2)OCCO3)c2cc(OC)c(OC)cc2c1=O`, the Potency was “inactive”.
For `COc1cccc(/C=C2\SC(=S)N(CCC(=O)NCCc3ccc(O)cc3)C2=O)c1`, the Potency was inconclusive [cytotoxic, single point].
For `COc1ccc(OC)c(Nc2cc(C(=O)NCCCN3CCOCC3)c3ccccc3n2)c1`, the Potency was inconclusive [cytotoxic, partial curve].
For `CCOC(=O)N(C)c1c(CC)nc2c(OCc3ccc(Cl)cc3Cl)cccn12`, the Potency was inconclusive [cytotoxic, single point].
In the case of `Cc1ccccc1N1CC(=O)Nc2c(oc3nc(-c4ccccc4)cc(C)c23)C1=O`, the Potency is reported as inconclusive [cytotoxic, partial curve].
In the case of `Cc1onc(-c2ccccc2)c1CNC(=O)Nc1cccc(Cl)c1`, the Potency is reported as inconclusive [cytotoxic, partial curve].
For `CN(c1ccc(C(=O)NCCSC(C)(C)C)cc1)S(=O)(=O)c1ccccc1`, the Potency was “inactive”.
For `O=C(/C=C/c1cccnc1)c1ccc(F)c(F)c1`, the Potency was inconclusive [cytotoxic, single point].
With `CCc1nc2ccc(C(=O)N3CCN(c4cc(C)ccc4C)CC3)cc2nc1CC` the Potency was “inactive”.
For `O=C(Cc1coc2ccc3ccccc3c12)Nc1nnc(C2CC2)s1`, the Potency was inconclusive [cytotoxic, partial curve].
In the case of `OC(c1ccc(Cl)c(Cl)c1)c1ncc(-c2ccccc2C(F)(F)F)[nH]1` (stereo unspecified), the Potency is reported as inconclusive [cytotoxic, single point].
In the case of `CC[C@H](C)[C@@H](C(=O)NCCCCCCCCCCC(=O)N1CCNCC1)n1cc(CCCCN=C(N)N)nn1`, the Potency is reported as “inactive”.
In the case of `COCCSc1ccccc1C(=O)Nc1ccc(Cl)cc1`, the Potency is reported as “inactive”.
With `CC(C)Oc1ccc(C(CC(=O)NCc2ccco2)c2ccccc2)cc1` (stereo unspecified) the Potency was “inactive”.
For `CC(=O)O[C@@H]1C[C@H]2C(C)(C)C(=O)C=C[C@]2(C)[C@H]2CC[C@@]3(C)[C@H](c4ccoc4)OC(=O)[C@H]4O[C@]43[C@@]21C`, the Potency was inconclusive [cytotoxic, single point].
In the case of `CCOC(=O)c1cc(-c2ccccc2)nc2c1c(C)nn2-c1ccccn1`, the activity, negative = toxicity is reported as inactive: 1.92% [at 9.24 µM].
With `C=CCn1c(O)c(CN2CCOCC2)c(C)c(C#N)c1=O` the Potency was “inactive”.
In the case of `CC(C)C[C@H]1CNC(=S)N1C[C@H]1CCCN1C[C@H](Cc1ccc(O)cc1)N1C[C@H](Cc2ccc(O)cc2)N(CC2CCCCCC2)C1=S`, the Potency is reported as active: 13 µM.
With `CCCCN(C)CCNC(=O)c1ccc(Cn2c(=S)[nH]c3ccc(Br)cc3c2=O)cc1` the Potency was active: 14.6 µM.
With `O=C(NCc1ccco1)c1ccc2ccccc2c1` the Potency was inconclusive [cytotoxic, single point].
With `O=[N+]([O-])c1cc([N+](=O)[O-])c2c(=Nc3ccccc3)n(-c3ccccc3)n(O)c2c1` the Potency was inconclusive [cytotoxic, single point].
With `CC(=O)Nc1ccc(C(=O)N2CCCC(c3cc(C(=O)NCc4ccc(F)cc4)no3)C2)cc1` (stereo unspecified) the Potency was “inactive”.
For `COC(=O)c1ccccc1C(=O)N(Cc1cccnc1)CC1CCCN(C2CCCCC2)C1` (stereo unspecified), the Potency was “inactive”.
